Results from PubChem BioAssay AID1030 (National Center for Advancing Translational Sciences (NCATS), 2008).
The campaign covered roughly 220,000 compounds. About 16,000 (7.3%) were called active. Inconclusive results, whose numbers are uncertain, are shown with a selection of clear calls. Calls come from the whole dose curve; as a rule, active = well fitted inhibition curve with a large enough effect (not every such curve was filed as active); inconclusive = small, poorly fitted or top-dose-only effect, or another doubt; inactive = no such curve, though single readings can be large or run the other way. No potency is given beside an inconclusive call; the fits are too rough.

Biological target: Aldehyde dehydrogenase 1A1 (Homo sapiens) (UniProt P00352)
Test: qHTS Assay for Inhibitors of Aldehyde Dehydrogenase 1 (ALDH1A1);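 for activity, negative = inhibition: plate controls were no enzyme wells and a reference inhibitor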
Conditions: Purified ALDH1A1, NADH fluorescence, propionaldehyde substrate; series mostly up to 75.3 µM
Potency is the fitted concentration of half-maximal effect; tags give direction and shape of the fitted curve.

UniProt P00352, sequence (P00352 whole entry, looked up): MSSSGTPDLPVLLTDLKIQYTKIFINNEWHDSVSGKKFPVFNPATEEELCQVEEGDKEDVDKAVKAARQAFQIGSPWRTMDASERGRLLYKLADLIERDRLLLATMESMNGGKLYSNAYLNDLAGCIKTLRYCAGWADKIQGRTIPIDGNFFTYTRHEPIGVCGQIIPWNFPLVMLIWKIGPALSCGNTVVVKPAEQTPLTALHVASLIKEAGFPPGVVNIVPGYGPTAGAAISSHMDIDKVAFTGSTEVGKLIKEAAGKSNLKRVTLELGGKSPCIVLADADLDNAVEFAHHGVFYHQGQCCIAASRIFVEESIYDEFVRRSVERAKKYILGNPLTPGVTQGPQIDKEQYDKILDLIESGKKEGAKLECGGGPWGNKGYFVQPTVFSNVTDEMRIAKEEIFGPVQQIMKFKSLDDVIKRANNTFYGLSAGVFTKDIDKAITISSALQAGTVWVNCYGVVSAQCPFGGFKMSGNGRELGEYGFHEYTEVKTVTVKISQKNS

SMILES | Potency | activity, negative = inhibition
COC(=O)C1=C2SCC(=O)N2C(N)=C(C#N)C1 | inconclusive [inhibitor, single point] | 
CCCCn1c(CCC(=O)O)ccc1-c1cccs1 | inconclusive [inhibitor, partial curve] | 
O=CN[C@@H](Cc1cnc[nH]1)C(=O)O |  | inactive: 0.37% [at 13.5 µM]
CSc1nc2[nH]c3c(c2c2ncnn12)CCCC3 | inactive | 
CCSCc1nnc(SCC(=O)Nc2cccc(SC)c2)n1C | active: 20 µM | 
CNS(=O)(=O)c1cccc(C(=O)OCc2cc(=O)n3cc(Br)ccc3n2)c1 | inconclusive [inhibitor, single point] | 
CCc1ccc(NC(=O)COc2ccc(Br)cn2)cc1 | inactive | 
COc1ccc(N2CCN(C(C)C(=O)N3CC(C)OC(C)C3)CC2)cc1 (configuration not stated) | inconclusive [inhibitor, single point] | 
Cc1cccc(CNc2ncnc3ccc(-c4cccc(NS(C)(=O)=O)c4)cc23)c1 | inconclusive [inhibitor, single point] | 
COC(=O)CSc1nnc(CNC(=O)c2cccs2)n1-c1cc(OC)ccc1OC | active: 20 µM | 
O=C(COC(=O)CCc1ccccc1)NC12CC3CC(CC(C3)C1)C2 | inactive | 
Cc1ccc2c(c1)nnn2C1CCN(C(=O)c2ccccc2F)CC1 | inconclusive [inhibitor, partial curve] | 
CC1=C(C(=O)Nc2ccccc2)C(c2ccco2)C(C#N)=C(SCC(=O)Nc2cccc(C)c2C)N1 (configuration not stated) | inconclusive [inhibitor, partial curve] | 
CCCN1CCC(=NNc2ccc(C(=O)O)cc2)CC1 | active: 25.1 µM | 
COc1ccc(S(=O)(=O)N2CCSC2c2ccccc2)cc1 (configuration not stated) | active: 25.1 µM | 
COc1ccc(CCCc2nnc(SCC(=O)Nc3cccc(C)c3)o2)cc1 | inconclusive [inhibitor, single point] | 
CCn1c(SCC(=O)N2CCC(C)CC2)nnc1-c1ccc(S(=O)(=O)N2CCN(C)CC2)cc1 | inconclusive [inhibitor, single point] | 
CCOC(=O)c1c(C)nc2ncccn12 | inconclusive [inhibitor, partial curve] | 
CS(=O)(=O)c1ccc2nc(NC(=O)CCN3C(=O)c4ccccc4C3=O)sc2c1 | inconclusive [inhibitor, single point] | 
CC(=O)COc1cc(C)cc2oc(=O)cc(-c3ccccc3)c12 | active: 2.24 µM | 
COc1ccc(/C=C2\N=C(SC)N(c3ccccc3OC)C2=O)cc1 | inconclusive [inhibitor, single point] | 
CN(CCC#N)C(=O)COC(=O)c1ccccc1C(=O)c1ccc(Cl)c([N+](=O)[O-])c1 | inactive | 
Cc1nn(-c2ccc(Cl)c(Cl)c2Cl)c(=O)c2ccccc12 | inactive | 
COc1ccc(/C=N/NC(=O)c2ccccc2F)cc1CN1CCN(c2ccc(F)cc2)CC1 | inconclusive [inhibitor, single point] | 

SMILES | Potency | activity, negative = inhibition
OC[C@@H]1O[C@@H](n2cnc3c(N[C@H]4CCC[C@@H]4O)ncnc32)[C@H](O)[C@H]1O | inactive | 
COCCNS(=O)(=O)c1ccc(-c2ccc(S(=O)(=O)NCCOC)cc2)cc1 | inconclusive [inhibitor, single point] | 
CCOc1ccc(C(=O)CSc2nnc3ccccn23)cc1 | inactive | 
CCN(CC)S(=O)(=O)c1ccc(NC(=O)c2ccc(N(C)S(C)(=O)=O)cc2)cc1 | inconclusive [inhibitor, single point] | 
C=CCCCCCCCCC(=O)O | inactive | 
CCCOc1cccc(NC(=O)c2c(-c3ccccc3)noc2C)c1 | inconclusive [inhibitor, partial curve, poor fit] | 
CCOc1ccccc1N(CC(=O)N/N=C(\C)c1cccc(Br)c1)S(C)(=O)=O | inconclusive [inhibitor, single point] | 
CN1CCN(C(=O)c2ccc(C3SCC(=O)N3Cc3ccco3)cc2)CC1 (configuration not stated) | inconclusive [inhibitor, single point] | 
CCOc1ccc(C2N(c3cc(Cl)ccc3OC)C(=O)C3CCCN32)cc1OC (configuration not stated) | inconclusive [inhibitor, single point] | 
Cc1ccc2nc(Nc3nc(CSc4nnc(C)s4)cc(=O)[nH]3)nc(C)c2c1 | inconclusive [inhibitor, single point] | 
C=CCn1c(C)cc(C2=NNC(=NCC)SC2)c1C | inconclusive [inhibitor, single point] | 
Cn1cnnc1SCC(=O)Nc1ccc(Cl)c(S(=O)(=O)N2CCOCC2)c1 | inactive | 
CC(=O)Nc1ccc(Nc2nc(C)c([N+](=O)[O-])c(Nc3ccc(NC(C)=O)cc3)n2)cc1 | inactive | 
CN(C)S(=O)(=O)Oc1cccc(C(=O)Nc2ccccc2Cl)c1 | inconclusive [inhibitor, partial curve] | 
O=C(CSc1nnc2ccccn12)N1CCc2ccccc2C1 | inconclusive [inhibitor, partial curve] | 
CC(=O)N1CCC2(CC1)CC(=O)c1cc(OCC(=O)NCc3ccc(C)cc3)ccc1O2 | inconclusive [inhibitor, partial curve] | 
Cc1cccc(C(=O)c2c(N)sc3c2CCC(C)C3)c1 (configuration not stated) | active: 7.94 µM | 
COc1ccc(-c2nnc(SCC(=O)Nc3cc(F)ccc3C)o2)cc1 | inconclusive [inhibitor, single point] | 
NCCc1nc(-c2nc(C(=O)O)cs2)cs1 |  | inactive: 7.95% [at 13.5 µM]
S=c1[nH]ncn1-c1ccccn1 | inconclusive [inhibitor, single point] | 
COC(=O)N[C@@H](c1cccc(F)c1)C(C(C)=O)C(=O)OC (some centres not stated) | inactive | 
O=C(CSc1nnnn1C1CCCCC1)N1CCCC1 | inconclusive [inhibitor, single point] | 
COc1cc(CC(=O)OCC(=O)Nc2sccc2C(N)=O)cc(OC)c1OC | inconclusive [inhibitor, single point] | 
COc1ccc2c(c1)c1nnc(SCC(=O)N3CCCCC3C)nc1n2C (configuration not stated) | inconclusive [inhibitor, partial curve] | 

SMILES | Potency | activity, negative = inhibition
N#CCc1c(C#N)c(N)nc(N2CCN(Cc3ccc4c(c3)OCO4)CC2)c1C#N | inconclusive [inhibitor, full curve] | 
COc1ccc(-c2cc(-c3c(O)c(OC)c4occc4c3OC)[nH]n2)cc1 | inconclusive [inhibitor, partial curve] | 
CCOC(=O)C1CCCN(C(=O)c2cc(=O)c3ccccc3o2)C1 (configuration not stated) | inconclusive [inhibitor, partial curve] | 
CC(C)CC(=O)NC(=S)Nc1sc2c(c1C(N)=O)CCC2 | active: 1.41 µM | 
O=C(CSc1ccccc1)Nc1nc2ccccc2[nH]1 | inactive | 
CCCSc1cc(N2CCCC2)nc(-c2ccccc2)n1 | inactive | 
CCSCCNC(=O)c1cc(-n2cnnc2)ccc1Cl | inconclusive [inhibitor, single point] | 
CC(=O)Nc1ccc(N2CCN(Cc3ccccc3F)CC2)cc1 | inactive | 
CCOc1cccc(C(=O)NC(=S)Nc2ccc(N3CCCC3)cc2)c1 | active: 7.08 µM | 
O=C(NNC(=O)c1cc(OCC(F)(F)F)ccc1OCC(F)(F)F)c1cccc(C(F)(F)F)c1 | inactive | 
O=C(c1ccc(S(=O)(=O)N2CCOCC2)cc1)N(c1ccc(F)cc1)C1C=CS(=O)(=O)C1 (configuration not stated) | inconclusive [inhibitor, single point] | 
COc1cccc(/C=N/NC(=O)c2ccc(CN3c4cccc5cccc(c45)S3(=O)=O)cc2)c1 | inconclusive [inhibitor, partial curve] | 
Cc1ccc2nc(N(CCCN(C)C)C(=O)CN3C(=O)c4ccccc4C3=O)sc2c1 | inconclusive [inhibitor, partial curve] | 
Cc1ccc(C(=O)Oc2ccc(Cl)c3cccnc23)cc1[N+](=O)[O-] | inactive | 
O=C(Nc1ccc2c(c1)OCCO2)c1ccc(Br)c(S(=O)(=O)N2CCOCC2)c1 | inconclusive [inhibitor, partial curve] | 
C[n+]1cc[nH]c1SCC(=O)c1ccccc1 | active: 25.1 µM | 
CCOC(=O)c1sc(N)c(C#N)c1CSc1nnc(C2CC2)n1N | inconclusive [inhibitor, single point] | 
O/N=C/c1ccc(-c2ccccc2OC(F)(F)F)o1 | inconclusive [inhibitor, single point] | 
COc1ccc(/C=C/C(=O)N2CCN(S(=O)(=O)c3ccccc3)CC2)cc1OC | inconclusive [inhibitor, single point] | 
Cc1cccc(C(=O)NC(=S)NNC(=O)COc2c(C)cccc2C)c1 | inconclusive [inhibitor, single point] | 
O=C(NCc1n[nH]c(=S)n1-c1ccccc1)c1ccc(S(=O)(=O)N2CCCCC2)cc1 | active: 11.2 µM | 
COc1ccc(-c2csc(Nc3ccc(S(=O)(=O)Nc4cc(OC)nc(OC)n4)cc3)n2)cc1 | inconclusive [inhibitor, single point] | 
CC(=O)CSc1ncnc2sc3c(c12)CCC(C)C3 (configuration not stated) | inconclusive [inhibitor, single point] | 
O=C(NC1CCCCCCC1)C1CCN(S(=O)(=O)N2CCC3(CC2)OCCO3)CC1 | inconclusive [inhibitor, single point] | 
